Measurements as given in the supplement of paper PMC12217912.
Some of the results follow. The full chains were built here from the parent and the listed change. Inactive controls read about 0.05.

B1: TEV protease; numbered along this chain (parent)
chain: MGESLFKGPRDYNPISSSICHLTNESDGHTTSLYGIGFGPFIITNKHLFRRNNGTLVVQSLHGVFKVKDTTTLQQHLVDGRDMIIIRMPKDFPPFPQKLKFREPQREERICLVTTNFQTKSMSSMVSDTSCTFPSGDGIFWKHWIQTKDGQCGSPLVSTRDGFIVGIHSASNFTNTNNYFTSVPKNFMELLTNQEAQQWVSGWRLNADSVLWGGHKVFMVKPEEPFQPVKEATQL

Variants of: B1
Assay: raw area under fraction-flipped curve 0-4 h after induction (AUC4h, not background-subtracted), DNA-recorder readout of cleavage of the substrate (dimensionless); higher = more cleavage of the substrate by the protease variant
Settings: temperature: 34 °C; time window: 0-4 h after rhamnose induction
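Note: Bxb1 expression induced with 0.2% (w/v) L-rhamnose at OD600 near 0.5, cultures sampled hourly, flipped fraction per protease–substrate barcode pair counted by paired-end Illumina sequencing.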

Variant	area with substrate ENCYFQS	area with substrate ENDYFQS	area with substrate ENEYFQS	area with substrate ENFYFQS	area with substrate ENGYFQS	area with substrate ENKYFQS	area with substrate ENMYFQS	area with substrate ENNYFQS	area with substrate ENPYFQS	area with substrate ENQYFQS	area with substrate ENSYFQS	area with substrate ENTYFQS	area with substrate ENVYFQS	area with substrate ENWYFQS	area with substrate ENHYFQS	area with substrate ENIYFQS	area with substrate ENAYFQS	area with substrate ENRYFQS	area with substrate ENYYFQS
T192E	0.0774	0.0613	0.059	0.0597	0.0628	0.0644	0.0632	0.0641	0.0548	0.0585	0.0566	0.061	0.0788	0.0668	–	–	–	–	–
L56T	0.0482	0.0495	0.047	0.0817	–	0.0494	–	0.0504	–	0.0604	0.0597	0.0596	0.0664	0.053	0.0601	0.0844	–	–	–
A232C	–	–	0.103	0.0654	–	–	0.0023	–	0.0793	0.0634	0.0696	0.0558	0.0499	0.0532	0.0514	–	0.0574	0.0551	–
A232N	0.0582	0.0532	–	–	0.0661	0.0646	–	–	–	0.0569	0.0612	0.0372	–	–	0.0601	0.152	0.0756	0.0584	–
A232T	0.0634	0.0619	–	0.0419	–	–	0.112	–	0.0439	0.0618	0.0511	–	–	–	0.0569	0.172	0.0686	–	–
A232W	0.0687	–	–	0.057	–	–	0.0731	–	–	0.059	0.0583	0.0643	–	–	0.0463	–	0.0809	–	0.0621
A232H	–	0.0596	0.0515	–	0.0674	0.0736	–	0.0597	0.0716	0.0505	–	–	0.0856	–	0.0529	–	0.0575	–	–
A232V	0.0724	0.0543	–	–	0.0494	–	–	0.0624	0.0568	–	0.0635	0.0624	0.079	–	–	–	0.069	–	–
A232S	0.0699	–	0.0583	0.0553	–	0.0647	–	0.0314	–	0.0604	0.059	–	0.0843	0.0618	0.0709	0.12	0.0718	0.027	–
E224C	0.0651	0.0738	0.0658	0.0634	0.0476	0.0647	0.0845	0.0455	0.0506	0.0624	0.0559	0.0576	–	0.0405	–	0.0997	0.0652	0.0573	0.0124
E224R	–	0.0385	0.07	–	–	0.0756	0.0569	0.0629	–	0.0393	0.0529	0.0719	0.0388	–	0.0574	–	0.0531	0.0653	–
E224H	0.068	–	0.0656	0.0515	–	–	–	–	–	0.0559	0.0579	0.0607	0.0745	0.057	–	0.0916	0.0577	0.0371	–
E224A	0.0653	0.0526	0.0641	0.0657	0.0766	–	–	0.0637	0.0487	0.0602	0.0644	–	0.069	–	0.0689	0.1	0.0622	–	0.0643
E224W	–	0.0649	0.0515	0.058	0.0656	0.0585	0.104	0.0575	0.0567	0.0606	0.0579	0.0441	0.0822	–	0.0583	0.101	0.062	–	–
E224S	0.0674	0.0475	0.0658	–	0.0494	–	0.0761	0.0559	0.0672	0.0629	0.0661	–	–	0.0449	0.0583	0.103	0.0613	0.0605	–
E224V	0.0639	0.0678	0.0605	0.0711	0.076	0.0741	–	0.0512	–	0.0205	0.0637	0.0561	0.0798	–	–	0.103	0.0665	0.0477	–
E224N	–	0.0418	0.0536	–	0.0617	–	0.0718	0.0579	0.0632	0.0599	0.0573	0.0688	–	0.0703	0.0454	–	0.0644	–	–
E224K	0.0712	–	–	0.0693	0.0486	0.0666	–	0.0652	0.0827	0.0669	0.0687	0.0597	0.0827	–	0.0655	0.121	–	0.0496	0.0529
F226C	0.0805	0.0581	–	0.0659	0.0628	0.0803	–	0.0647	–	0.0616	0.0711	0.0611	–	0.0553	–	0.114	0.0716	0.0353	0.0588
K221R	–	0.0576	0.069	0.0467	0.0554	0.0592	0.0753	0.0591	0.0709	0.0619	0.0756	0.0663	0.0806	0.0502	–	–	0.0689	0.0579	0.0538
K216H	0.0559	0.0584	0.0585	0.0555	0.059	0.0705	–	–	–	0.0685	0.0615	0.061	0.0725	0.0606	0.0581	0.104	–	0.0433	–
K216F	0.0778	0.0581	0.0339	–	0.0612	–	0.057	0.0585	–	0.0556	0.0707	–	–	–	–	–	0.0463	0.0614	–
K216G	0.0376	–	0.0496	0.0461	–	–	0.0583	0.0327	0.0368	0.0365	0.0506	–	0.0469	0.0576	0.0465	0.0607	0.0413	0.0464	0.0548
K216I	0.0476	–	–	0.0634	0.0614	–	–	–	–	–	0.0718	–	–	–	–	–	–	0.0571	–
K216Q	–	0.0481	0.0618	–	–	–	–	–	–	0.0479	0.0563	–	0.0527	–	–	0.155	0.0754	0.0506	–
K216D	0.0634	–	–	–	–	0.0531	–	–	–	–	–	–	–	–	0.0662	–	–	–	–
V200T	0.0549	0.0884	–	–	–	–	–	0.0771	0.05	0.058	0.0636	0.0678	0.0607	–	–	0.0885	–	0.0704	–
P40N	0.0597	0.0647	0.0655	0.0605	–	0.0554	0.0887	–	–	0.0646	0.0619	0.0685	0.0943	0.0562	0.0585	0.105	–	0.0556	0.0673
I164A	0.0659	0.0592	0.0501	0.0446	–	–	–	–	–	0.0597	0.0589	0.0466	–	–	–	0.0585	–	–	0.0412
